Results reported in the supplement of paper PMC11417369.
This is one part of the list.

Tested on: PfSIP2 AP2 domain 1 (GST-tagged)
Assay: gcPBM binding intensity (ln(normalized median fluorescence intensity)); higher = stronger DNA binding
Summary of the method: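 Plasmodium falciparum DNA-binding domains carrying a GST tag were expressed in E. coli and applied for 1 h, at about 25 μg on average, to an Agilent 4 × 180k array. The array held primer-extended double-stranded 36-bp intergenic genomic probes together with negative controls, and binding took place in 1× PBS with 1% milk, 0.2 mg/ml BSA, 0.5% salmon testes DNA and 0.03% Triton X-100. An Alexa488 anti-GST antibody detected bound protein, and the array was scanned at 488 nm. Binding intensity is taken as the highest Masliner-normalised natural-log median intensity across replicate spots of either probe orientation.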

Row | Sequence | gcPBM binding intensity (ln)
1 | CTTTCTTATTTGAACGCATGCATTTGTACCTTTTAT [TGCATGCA_site671] | 7.1
2 | TATATACAAAATGCCTGTACATATATATTTATTTAT [XGTACX_site761] | 7.04
3 | CATGCAAAAAATTCCACACACACACCCACATATAAA [CACACA_site1229] | 7.14
4 | AATTATTTATCGGAATGTACATAAAAACATATGTAT [XGTACX_site7443] | 7.17
5 | AATAATATCATTTAGACACACACTCTTACAATATGT [CACACA_site8832] | 6.97
6 | ACCTACATAACATACACACGCATATATATAATTTTA [CACACA_site2847] | 7.61
7 | TATTTAATAAAGAAATAAAAATAAAGAAAAAAAAAA [CACACA_negctrl_site74] | 6.59
8 | TATTATATCGAACACTGTACTTTTTTATTCAACCTA [XGTACX_site493] | 6.92
9 | GCCTTTTTATTTAGAACACACACAAAAAAAAAAAAA [CACACA_site8520] | 7.56
10 | AATAATAAATATATATATATATATATATATATATTT [CACACA_negctrl_site786] | 7.62
11 | ATATATATATATATAGTGCAAATATCTTCTTTATAA | 9.74
12 | TAATAAACCAAACTAAACAATATATCAAAAAGCACA [CACACA_negctrl_site269] | 7.47
13 | TACAAATACATTACATGTACATATTTAATAATATCA [XGTACX_site2075] | 6.89
14 | TTTTCAATTAATAATACACACATGTATATATTATTA [CACACA_site3311] | 6.95
15 | AAGAAAAATATATATATAAATAAATAAATATATATA [TGCATGCA_negctrl_site330] | 6.98
16 | TTTGAAAAGTATGAGGTGCAAAAAATGTAATGAAAT | 10.2
17 | TATATTATTATGCATAGTACGTACTGTGATAAGAAT [XGTACX_site2956] | 7.42
18 | TTTTTCTGTCGTTGTTGTACTTGAGGAGTAACAATT [XGTACX_site7852] | 7.35
19 | CATTTTAAAACAGACACACACCAAAAAAAAAAAAAA [CACACA_site6259] | 6.99
20 | GTATATAAGTATATATGTACATATATTTTATATATA [XGTACX_site4745] | 7.14
21 | AATACGAAGGATAAGAGTACTAATTAAATAAATGAA [XGTACX_site523] | 7.02
22 | ATATAAGAATAAATAGTGCAAAATAAATGATTATTT | 8.09

Row | Sequence | gcPBM binding intensity (ln)
23 | TTTTTTTTTTTTTTGGTGCGATCTTTTAAATGATCC | 8.37
24 | TTTTATAATTTAAAATAATGAAACTTCTTTCTATTT [TGCATGCA_negctrl_site324] | 6.74
25 | TTTCTGATATTTTTATATTTTCTTATATATATATAT [GTGCAC_negctrl_site652] | 9.3
26 | TTTAAATTTTAATATGCACACAAAATGTTATATTAA [CACACA_site8015] | 7.55
27 | AATGTATTAAAATTACGTACATATGCACATTTTATA [XGTACX_site5046] | 7.52
28 | TTTTTTATTTTGTGCACACACATAAAAATATAAATA [CACACA_site6497] | 9.8
29 | TACTCTTTCCAGAAGTGTACATAGAAATAATTACAT [XGTACX_site2668] | 7.03
30 | TAAAAATAATATATTTGTACATATGTGTATACATAA [XGTACX_site741] | 6.97
31 | TATAAATACATACATACACACATATATATATATATT [CACACA_site6116] | 7.21
32 | TCCTAAAAAAAAAAAAAAAATGAAAAAGGAAAAAAA [CACACA_negctrl_site1646] | 6.6
33 | CAAGCACAGAAACACACACACACACCGACACAGACA [CACACA_site4359] | 7.19
34 | AAAAAAAAAAAAAAAAGTACTAAATGTAAAAGAATA [XGTACX_site2164] | 7.53
35 | TAGTATTATTATTATGCACACAAAAATATTTATACA [CACACA_site9219] | 7.81
36 | TTTTTTTTTTTTTTTTGTACATAATTATATATTTAC [XGTACX_site7540] | 7.08
37 | AGCATTTCTTTTACATGTACATAATATTTTTAATAA [XGTACX_site1968] | 7.43
38 | TATATATGTATGTATGCATGCCCTTTTTTAAAAAAA [TGCATGCA_site434] | 7.1
39 | AAAAAAAAAAAAAAAAAAATAAAAAATAAATAAATA [CACACA_negctrl_site1498] | 7.9
40 | AAGAAAAAACAAACATGTACACATAATTTAGTTTTT [XGTACX_site3121] | 6.81
41 | ATATGCTAATAAAATTGTACATATTATTCATATTGT [XGTACX_site2344] | 6.96
42 | ATTTTTCCTCTCTTTTGTACTTATATATATATATAT [XGTACX_site7405] | 9.67
43 | ATAAATACTTTTTGGTGTACACTTTTAAATGAAAAA [XGTACX_site3042] | 8.04
44 | CAATTAAAGAAAAACAGTACGTGTATCAAACATCCT [XGTACX_site8990] | 6.82
